Source: PubChem BioAssay AID588342 (National Center for Advancing Translational Sciences (NCATS), 2011)
In all, about 360,000 compounds went through this assay and about 25,000 (6.9%) were called active. The shares of active, inactive and inconclusive entries below differ from those in the screen. Calls come from the whole dose curve; as a rule, active = well fitted inhibition curve with a large enough effect; inconclusive = small, poorly fitted or top-dose-only effect; inactive = flat fitted curve, though single readings scatter. Potencies beside an inconclusive call are fits to weak or partial responses and may not hold up.
Note: nearly all actives have a fitted effect of over 55% in size.
Potency is the fitted concentration of half-maximal effect; tags give direction and shape of the fitted curve.
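Throughout, for activity change, negative = inhibition: plate controls were vehicle for no effect and reference inhibitor for full effect.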

Each compound was assayed against Luciferin 4-monooxygenase (Photinus pyralis) (UniProt P08659) (assay: qHTS profiling assay for firefly luciferase inhibitor/activator using purifed enzyme and Km concentrations of substrates (counterscreen for miR-21 project)). Details: purified FLuc, luminescence inhibition; activity change, negative = inhibition: at 57.5 µM (top of the series).
Sequence of UniProt P08659 (P08659 whole entry, looked up): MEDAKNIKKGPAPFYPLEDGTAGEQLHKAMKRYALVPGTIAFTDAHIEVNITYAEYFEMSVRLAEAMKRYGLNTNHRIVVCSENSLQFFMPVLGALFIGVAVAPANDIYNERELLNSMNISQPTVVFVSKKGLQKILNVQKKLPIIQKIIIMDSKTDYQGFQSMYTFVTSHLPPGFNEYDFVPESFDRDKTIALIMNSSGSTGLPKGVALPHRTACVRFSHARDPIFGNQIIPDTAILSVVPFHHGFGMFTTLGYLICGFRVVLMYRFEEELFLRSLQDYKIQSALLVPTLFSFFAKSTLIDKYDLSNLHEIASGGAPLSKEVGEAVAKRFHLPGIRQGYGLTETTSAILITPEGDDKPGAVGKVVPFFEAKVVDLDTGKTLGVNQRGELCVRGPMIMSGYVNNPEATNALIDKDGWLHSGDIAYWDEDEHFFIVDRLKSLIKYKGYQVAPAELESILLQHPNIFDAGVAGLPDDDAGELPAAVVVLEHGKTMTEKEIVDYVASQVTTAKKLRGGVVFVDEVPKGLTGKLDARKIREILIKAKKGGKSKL
How it was run: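 Purified P. pyralis luciferase (10nM final) with 10uM D-luciferin and 10uM ATP (Km levels) in 50mM Tris acetate pH 7.5, 10mM Mg acetate, 0.01% Tween-20, 0.05% BSA; qHTS 6-point titration, ~60 µM downward; luminescence read.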
With `CC(C)(C)c1nnc(NC(=O)C2c3ccccc3Oc3ccccc32)s1` the Potency was inconclusive: 12 µM [inhibitor, partial curve, poor fit].
With `COC(=O)c1ccc2ccccc2c1OC1OC(CO)C(O)C(O)C1NC(C)=O` (stereo not given) the Potency was inconclusive: 37.9 µM [inhibitor, single point].
For `CCN(CC)C(=O)c1ccccc1NC(=O)c1cccc(S(=O)(=O)N(CC)CC)c1`, the “activity change, negative = inhibition” value was inactive: 0.598%.
For `CCc1nc2ccc(C(=O)Nc3ccc4c(c3)OCO4)cc2nc1CC`, the Potency was inconclusive: 23.9 µM [inhibitor, partial curve].
With `COC(=O)c1c(-c2ccc(OC)cc2)sc2ccccc12` the Potency was inconclusive: 30.1 µM [inhibitor, single point].
With `CCc1cccc(CC)c1NC(=O)C1CCC(CNS(=O)(=O)c2cccc3nsnc23)CC1` (stereo not given) the “activity change, negative = inhibition” value was inactive: -6.91%.
In the case of `CC(=O)c1cccc(NS(=O)(=O)c2cc(-c3onc(C)c3C)ccc2C)c1`, the Potency is reported as inconclusive: 21.3 µM [inhibitor, single point].
With `Cc1cnc(C(=O)OCC(=O)Nc2ccc(OCc3ccccc3)cc2)cn1` the Potency was inconclusive: 6.75 µM [inhibitor, partial curve, poor fit].
`COc1ccc(-c2cc(CCCC(=O)NCCc3ccccc3)no2)cc1` was tested, and the Potency was active: 7.57 µM.
In the case of `Cc1cc(N/N=C/c2cccc(Br)c2)nc2ccccc12`, the Potency is reported as active: 4.78 µM.
`Cc1ccnc(NC(=O)c2ccc([N+](=O)[O-])o2)c1` was tested, and the Potency was inconclusive: 26.9 µM [inhibitor, partial curve, poor fit].
In the case of `COc1cc2c(cc1OC)CN(C(=O)Cc1ccccc1)CC2`, the “activity change, negative = inhibition” value is reported as inactive: -0.107%.
In the case of `Nc1nnnn1/N=C/C=C/c1ccccc1`, the Potency is reported as inconclusive: 30.1 µM [inhibitor, partial curve, poor fit].
With `Cc1c(NC(=O)C(C)OC(=O)CNC(=O)c2ccc(C(C)(C)C)cc2)c(=O)n(-c2ccccc2)n1C` (stereo not given) the Potency was inconclusive: 33.8 µM [inhibitor, single point].
`N#CC1=C(N)SC(N)=C(C#N)C1c1c(Cl)cccc1Cl` was tested, and the Potency was inconclusive: 26.9 µM [inhibitor, partial curve, poor fit].
In the case of `CCCCNC(=O)C(CC)(ONc1ccccc1C(F)(F)F)c1ccccc1` (stereo not given), the “activity change, negative = inhibition” value is reported as inactive: -1.32%.
For `Cc1cc(C(=O)NC2Cc3ccccc3C2)c(C)o1`, the Potency was active: 21.3 µM.
For `CC(C)c1ccc(/C=N/NC(=O)CC(=O)NCc2ccccc2)cc1`, the Potency was inconclusive: 7.57 µM [inhibitor, partial curve, poor fit].
With `CCc1ccc(S(=O)(=O)c2nnn3c2nc(N2CCOCC2)c2sccc23)cc1` the “activity change, negative = inhibition” value was inactive: 1.58%.
For `Cc1cc(C(=O)CSc2ccc(F)cc2)cc(C)c1O`, the Potency was active: 19 µM.
For `CCOc1cc(/C=C2\SC(=S)N(Nc3ccccc3)C2=O)ccc1O`, the Potency was active: 6.75 µM.
In the case of `Cc1ccc(S(=O)(=O)Nc2ccc(Cl)cc2)cc1NC(=O)c1cc2c(s1)CCCC2`, the Potency is reported as inconclusive: 30.1 µM [inhibitor, partial curve, poor fit].
`COc1cc(/C=N/O)cc(Br)c1OCc1cccc(Cl)c1` was tested, and the Potency was inconclusive: 23.9 µM [inhibitor, partial curve, poor fit].
With `COc1ccc(-c2cc3ccc(OC(C)C(=O)O)cc3oc2=O)cc1` (stereo not given) the Potency was active: 26.9 µM.
`O=C(CSc1ccc(-c2ccco2)nn1)NCc1ccccc1Cl` was tested, and the Potency was inconclusive: 23.9 µM [inhibitor, partial curve, poor fit].
In the case of `Cc1ccc(-n2nc(-c3ccco3)cc2C(=O)O)c(C)c1`, the Potency is reported as inconclusive: 23.9 µM [inhibitor, partial curve, poor fit].
With `Cc1ccc(C2=NCCn3c2c2ccc(C(F)(F)F)cc2[n+]3[O-])cc1` the Potency was inconclusive: 37.9 µM [inhibitor, partial curve, poor fit].
`CCn1c(-c2ccc(N)cc2)nc2ccccc21` was tested, and the Potency was inconclusive: 23.9 µM [inhibitor, single point].
For `C/C(=N\O)c1ccc2[nH]ccc2c1`, the Potency was inconclusive: 37.9 µM [inhibitor, partial curve, poor fit].
In the case of `CCc1c(C)[nH]n(-c2nc(-c3ccccc3)cs2)c1=O`, the Potency is reported as inconclusive: 23.9 µM [inhibitor, single point].
With `Cc1ccccc1Nc1cc(C)c2c(O)cccc2n1` the Potency was active: 19 µM.
With `CC1(C)CC(=O)C=C(Nc2cc(-c3ccccc3)[nH]n2)C1` the Potency was inconclusive: 16.9 µM [inhibitor, partial curve].
For `COc1ccccc1/C=C/c1nc(C#N)c(N2CCN(C)CC2)o1`, the “activity change, negative = inhibition” value was inactive: 2.89%.
For `Cc1ccc(C(=O)COC(=O)CNC(=O)COc2ccccc2C)cc1C`, the Potency was inconclusive: 30.1 µM [inhibitor, partial curve, poor fit].
In the case of `O=C(Nc1ccc(Cl)cc1)c1csc(-c2ccccc2)n1`, the Potency is reported as inconclusive: 15.1 µM [inhibitor, partial curve, poor fit].
For `COc1cc(/C=N/Nc2nncn2/N=C/c2ccc(O)c(OC)c2)ccc1O`, the Potency was active: 0.379 µM.
For `Cc1ccc(S(=O)(=O)N/N=C/c2ccc(OCC(=O)Nc3ccccc3Cl)cc2)cc1`, the Potency was inconclusive: 26.9 µM [inhibitor, partial curve, poor fit].
`Cc1cc(C)n2cc(-c3ccc(Cl)cc3)c(C(=O)O)c2n1` was tested, and the Potency was inconclusive: 9.53 µM [inhibitor, partial curve].
In the case of `O=C(CSc1n[nH]c(-c2ccccc2)n1)c1ccccc1`, the Potency is reported as inconclusive: 26.9 µM [inhibitor, partial curve, poor fit].
`COc1cc(C(=O)Nc2ccc3c(c2)OCCO3)ccc1OC(F)F` was tested, and the Potency was active: 6.01 µM.
`O=C(NNC(=O)c1cccc(O)c1)Nc1ccc([N+](=O)[O-])cc1` was tested, and the “activity change, negative = inhibition” value was inactive: 4.2%.
In the case of `O=C(c1ccccc1)c1ccc(O)cc1O`, the Potency is reported as inconclusive: 19 µM [inhibitor, partial curve, poor fit].
In the case of `COc1ccc(Nc2ncnc3sccc23)c(OC)c1`, the Potency is reported as inconclusive: 23.9 µM [inhibitor, partial curve, poor fit].
With `CC(=O)Nc1ccc(NC(=O)[C@@H](NC(=O)c2cccc(C)c2)C(C)C)cc1` the “activity change, negative = inhibition” value was inactive: 0.122%.
With `Cc1ccc(-n2c(-c3cnccn3)n[nH]c2=S)c(Br)c1` the “activity change, negative = inhibition” value was inactive: 0.963%.
